These results are taken from ChEMBL document CHEMBL4888484, “Replenishing the malaria drug discovery pipeline: Screening and hit evaluation of the MMV Hit Generation Library 1 (HGL1) against asexual blood stage Plasmodium falciparum ,using a nano luciferase reporter read-out” (2022).

In all, about 150,000 compounds went through this assay and about 540 (0.36%) showed an effect of 50% or more. Some of the results follow.

The test system of this assay is Plasmodium falciparum. The assay is described as follows: Primary screen in NF54 nanoGlo assay, in single point, at 2uM, 72h; a lower Z score goes with more inhibition. The note with it: timepoint 72 hour. In kind it is functional, Erythrocyte.
With `CCn1ncc(C2=NO[C@H](C(=O)N3CCN(c4ccccc4)CC3)C2)c1C`, the “% Inhibition” value is on record as -10% and the Z score is 1.39.
In the case of `Cc1ccc(CNC(=O)c2ccc[n+]([O-])c2)s1`, the “% Inhibition” value is recorded as 7% and the Z score was -0.93.
With `CC(C)Oc1cc(N2CCC[C@H](c3nccn3CC(N)=O)C2)nc(N)n1`, the “% Inhibition” value is -4% and the Z score is 0.62.
For the compound `CCCS(=O)(=O)N1CCC[C@H](C(=O)Nc2nc(-c3c(F)cccc3F)cs2)C1`, the “% Inhibition” value is recorded as -3% and the Z score amounted to 0.49.
Take `COc1cccc(N2CCC[C@H](NCc3cn(C(C)(C)C)nn3)C2)c1`: the “% Inhibition” value is -6% and the Z score turned out to be 0.62.
For `Cc1nc(-c2cnn(C(C)C)c2)n(CC(F)(F)F)n1`, the “% Inhibition” value is -7% and the Z score is given as 1.3.
On to `CC(=O)Nc1ccc(Br)cc1N`, for which the “% Inhibition” value is recorded as -7% and the Z score stood at 0.6.
`Cc1nnc(CC(=O)NC[C@H]2CCC[C@@H]2O)s1`: the “% Inhibition” value is on record as 5% and the Z score was -0.64.
With `C[C@@H](Cc1ccc(F)cc1)Nc1ccnn1C`, the “% Inhibition” value was -1% and the Z score is listed as 0.11.
`COc1ccc(OC)c(S(=O)(=O)N2CCCCC[C@H]2c2cccc(C)c2)c1`: the “% Inhibition” value is recorded as -1% and the Z score amounted to 0.19.
Consider `O=C(O)[C@H]1CN(C(=O)c2c(F)cccc2F)C[C@@H]1c1ccc2c(c1)OCO2`, for which the “% Inhibition” value was -2% and the Z score came to 0.21.
For the compound `Cc1c(S(=O)(=O)NCc2ccc(O)cc2O)cnn1C`, the “% Inhibition” value is reported as -13% and the Z score is 1.07.
On to `CC(=O)N1CCCN(C(=O)c2n[nH]c3ccccc23)CC1`, for which the “% Inhibition” value was -5% and the Z score was 0.79.
On to `c1cc(CN2CCCO[C@@H](CN3CCOCC3)C2)ccn1`, for which the “% Inhibition” value was -6% and the Z score was determined as 0.97.
Regarding `Cc1noc(CNC(=O)C2CCN(C(=O)Cc3cccs3)CC2)n1`, the “% Inhibition” value is on record as -3% and the Z score amounted to 0.47.
The matching figures for `Cc1ccn2c(=O)c(C(=O)NCc3ccccc3)c(O)nc2c1`: -2% and 0.29.
On to `CN(Cc1ccc(Cl)s1)C(=O)CN1CCC[C@H](C(=O)O)C1`, for which the “% Inhibition” value was -14% and the Z score turned out to be 1.42.
As for `O=C1CNC(=O)N1Cc1nc(CCc2ccccc2)nn1-c1ccccc1`, the “% Inhibition” value came to 7% and the Z score is reported as -1.05.
With `O=c1n(-c2ccccc2)c(=O)n2n1CCC2`, the “% Inhibition” value is listed as 2% and the Z score is -0.2.
Turning to `O=C(NCCc1ccccc1)c1cc2n(n1)C[C@@H](c1ccccc1)OC2`, the “% Inhibition” value is 1% and the Z score is reported as -0.18.
With `CN(Cc1csc(-c2ccccc2)n1)C(=O)c1c[nH]c(=O)[nH]c1=O`, the “% Inhibition” value is recorded as -1% and the Z score was found to be 0.28.
As for `CCN1CCN(c2nc3nonc3nc2NCc2cccs2)[C@@H](C)C1=O`, the “% Inhibition” value is reported as -10% and the Z score is 1.38.
As for `O=C(NCc1ccc(Oc2ccccc2)cn1)[C@H]1CCS(=O)(=O)C1`, the “% Inhibition” value is -11% and the Z score stood at 1.31.
As to `FC1CC2(CCC1NCc1noc3c1CCCC3)OCCO2` (centres undefined), the “% Inhibition” value was -3% and the Z score is recorded as 0.61.
For the compound `CC1CCC2(CCN(C(=O)c3ccc4cncn4c3)C2)C1` (centres undefined), the “% Inhibition” value is listed as -9% and the Z score was 0.9.
`Nc1ccc2c(-c3ccccc3)c(-c3ccccc3)[nH]c2n1`: the “% Inhibition” value is listed as 6% and the Z score was -1.14.
Take `O=C(NCCCOC1CCCC1)[C@H]1CCOc2ccccc2C1`: the “% Inhibition” value is given as -11% and the Z score was found to be 1.2.
For `O=C(NC[C@H]1CCCO1)c1ccc2c(c1)C(=O)N(Cc1ccccc1)C2=O`, the “% Inhibition” value is -7% and the Z score was determined as 1.39.
Consider `O=C(Cc1c[nH]c2cc(Cl)ccc12)N1CCCC1`, for which the “% Inhibition” value is -2% and the Z score came to 0.33.
Turning to `O=C1NC[C@H]2CN(Cc3c(Cl)cccc3N3CCCC3)CCN12`, the “% Inhibition” value was -3% and the Z score is 0.27.
Consider `Cc1cc(CCC(=O)N2CC(N3C(=O)COC3=O)C2)ccc1Cl`, for which the “% Inhibition” value is -9% and the Z score worked out at 1.06.
In the case of `CN(Cc1cn(C)nn1)CC1(O)CCC1`, the “% Inhibition” value was found to be 4% and the Z score was -0.56.
On the same counts, the results for `COCC[C@]1(NC(=O)c2ccc(F)cc2)CCN(S(=O)(=O)c2ccc(C)c(F)c2)C1` are -2% and 0.35.
On the same counts, the results for `OCCn1nc(C2CCOCC2)nc1-c1ccc([C@@H]2CCCO2)s1` are 9% and -1.23.
Take `Cn1c(CN2CCN(c3ccnc4ccccc34)CC2)cc(=O)n(C)c1=O`: the “% Inhibition” value was found to be 17% and the Z score was -2.24.
As for `CC1Cc2cc(F)ccc2C(C)N1C(=O)c1ccc(=O)n(C)n1` (centres undefined), the “% Inhibition” value was -45% and the Z score amounted to 5.26.
On to `Cc1ccc(C)c(CN(Cc2ccccc2)Cc2nc(C(=O)NCCN(C)C)co2)c1`, for which the “% Inhibition” value is on record as -13% and the Z score worked out at 1.6.
As to `CC(=O)c1ccc(C(=O)NC[C@H]2CCCOC2)cc1O`, the “% Inhibition” value was 2% and the Z score is on record as -0.27.
In the case of `CCCN(CC(=O)NC)Cc1cc2ccccc2c(=O)[nH]1`, the “% Inhibition” value is reported as 1% and the Z score is -0.1.
`COc1cccc(CN2CCC[C@@]3(CCN(Cc4cccnc4)C3)C2=O)c1OC`: the “% Inhibition” value is listed as -8% and the Z score was found to be 1.19.
As to `C#CCOC[C@@H](O)CN(CCCOC)Cc1ccccc1`, the “% Inhibition” value is reported as -3% and the Z score came out at 0.49.
In the case of `Cc1nnc2n1CCN(C(=O)c1ccc(-c3ccccc3F)o1)C2`, the “% Inhibition” value is listed as -9% and the Z score came out at 1.18.
As for `COC(=O)COc1cc(-c2ccc(OC)cc2)nc2ccc(NC(=O)c3c(F)cccc3F)cc12`, the “% Inhibition” value turned out to be 20% and the Z score is on record as -2.06.
The matching figures for `CC1=NN=C(c2ccccc2)[C@H](c2ccc(O)cc2O)N1O`: -21% and 2.46.
The matching figures for `COc1cc(Br)c(NC(=O)N(C)CC(C)C)cc1OC`: -13% and 1.89.
As for `Cc1c(C(=O)NCc2cccs2)sc2ncnc(N(C)C3CCCCC3)c12`, the “% Inhibition” value was found to be 4% and the Z score is -0.39.
The matching figures for `COC(=O)[C@@H]1C[C@@H](N(C)C)CN1C(=O)[C@@]12CC[C@@](C)(OC1=O)C2(C)C`: -9% and 1.38.
As to `N#Cc1ccc(Nc2ccc(N3CCc4sccc4C3)nc2)nc1`, the “% Inhibition” value is recorded as -6% and the Z score is given as 0.92.
Consider `Cc1ccc(NC(=O)c2sccc2S(=O)(=O)N(C)c2ccccc2)cc1Cl`, for which the “% Inhibition” value is on record as -1% and the Z score worked out at 0.08.
For the compound `CC(NCC(CCO)c1ccccc1)c1ncc(-c2ccccc2)o1` (centres undefined), the “% Inhibition” value is recorded as -6% and the Z score amounted to 1.23.
Turning to `N#Cc1ccnc(NCCc2nccs2)c1`, the “% Inhibition” value is given as -4% and the Z score was 0.61.
Turning to `COc1ccc(C(=O)Nc2c(C)nc3ncnn3c2O)cc1`, the “% Inhibition” value was determined as 45% and the Z score was -5.1.
The matching figures for `COCCCC1CCN(C[C@H]2COCCO2)CC1`: 8% and -1.07.
The matching figures for `Cc1nc(NS(=O)(=O)c2ccc(F)c(F)c2)n(-c2ccc(C#N)cc2)n1`: -11% and 1.18.
For the compound `CCc1nccn1C[C@H](C)NC1CCN(C(=O)Nc2ccccc2)CC1`, the “% Inhibition” value was 14% and the Z score is recorded as -1.81.
Consider `Cc1cc(NC(N)=O)cc2sc(=O)oc12`, for which the “% Inhibition” value was -2% and the Z score is given as 0.32.
As for `Cc1nnccc1C(=O)N[C@](C)(CO)Cc1ccc(Cl)cc1`, the “% Inhibition” value worked out at 4% and the Z score is -0.48.
Turning to `O=C(c1cccnc1)N1CC(c2nc(C3CC3)no2)C1`, the “% Inhibition” value is -7% and the Z score is on record as 1.37.
In the case of `Cn1cc(CCNC(=O)CCCN2CCCC2=O)cn1`, the “% Inhibition” value was -19% and the Z score was 3.22.
On the same counts, the results for `CC[C@H]1c2cccn2CCN1C(=O)c1csc(C)n1` are -8% and 0.99.
Consider `Cc1cc2nc(CS(=O)(=O)c3ccccc3)cc(O)n2n1`, for which the “% Inhibition” value was -6% and the Z score is given as 0.79.
For the compound `COc1ccccc1CNC1CC(C)OC1C` (centres undefined), the “% Inhibition” value is given as -11% and the Z score was determined as 1.45.
Consider `CC(C)n1cc(C(=O)N(C)Cc2ccc3nccnc3c2)cn1`, for which the “% Inhibition” value is -19% and the Z score was determined as 3.56.
`COc1ccc(Cn2nc3nc(Nc4ccc(F)c(C)c4)cc(C)n3c2=O)cc1`: the “% Inhibition” value is -12% and the Z score is 1.31.
Take `CC(C)(C)c1ccc(-c2ccc(CN3CCN4C(=O)NC(=O)[C@@H]4C3)o2)cc1`: the “% Inhibition” value is given as -7% and the Z score turned out to be 1.11.
On to `CO[C@H]1C[C@H](C(=O)N(C)C(C)c2ccccc2)N(S(C)(=O)=O)C1` (some centres undefined), for which the “% Inhibition” value is listed as -6% and the Z score is reported as 0.83.
Take `COc1c(C)ccc(NCc2noc(C3CC3)n2)c1C`: the “% Inhibition” value worked out at 0% and the Z score amounted to 0.04.
`CCOc1cc(NCc2nc(C)sc2C)ncn1`: the “% Inhibition” value is -8% and the Z score is 0.83.
The matching figures for `CNc1ncc(CN(C)C(=O)Cn2cnc3ccccc3c2=O)cn1`: -5% and 0.58.
For the compound `Cc1ccc(C[C@@H]2C(=O)N(c3ccccc3)c3ccccc32)cc1`, the “% Inhibition” value was determined as 0% and the Z score was -0.01.
As to `Cc1ccc(C(=O)N2CCC(c3nc(C)ccc3C(=O)N3CCCC3)CC2)cc1`, the “% Inhibition” value is listed as -2% and the Z score is 0.26.
With `Cc1ccc(-c2cnn(CC(=O)Nc3cc(F)ccc3F)c(=O)n2)cc1`, the “% Inhibition” value worked out at 5% and the Z score is -0.57.
Take `Cc1nc(CCNC(=O)c2nn(-c3cccc(C(C)C)c3)cc2O)cs1`: the “% Inhibition” value is -16% and the Z score came to 2.56.
As for `CCCCCOCC(=O)N[C@@H]1c2ccccc2C[C@H]1O`, the “% Inhibition” value is listed as -11% and the Z score worked out at 1.38.
On the same counts, the results for `Cc1ccc(NC(=O)Nc2ccc(N3CCN(Cc4ccccc4)CC3)c(C(=O)NC3CCCCC3)c2)cc1` are 3% and -0.58.
With `Cc1cnc(C)c(-c2cccc(-c3ccn(C[C@H]4CCCN(C)C4)n3)c2)n1`, the “% Inhibition” value was -3% and the Z score is 0.53.
Turning to `Cc1cc2n(n1)CCN(Cc1nc(-c3ccco3)no1)C2`, the “% Inhibition” value was -12% and the Z score is 2.39.
In the case of `COC(=O)c1cc(CNC(=O)[C@H](C)OCC(C)C)ccn1`, the “% Inhibition” value is -8% and the Z score turned out to be 1.3.
With `CCOC(=O)N1CCC(NC(=O)[C@@H]2CCCO2)CC1`, the “% Inhibition” value was 5% and the Z score is reported as -0.44.
For `O=C(Nc1cncc(Br)c1)NC1CC(F)(F)C1`, the “% Inhibition” value is -8% and the Z score is 1.21.
In the case of `COc1ccc(C(=O)N(C[C@H](O)c2ccccc2)CC(C)(C)C)c(F)c1`, the “% Inhibition” value is listed as -7% and the Z score was 0.91.
In the case of `Fc1ccc(F)c(-c2cncc(CN3CCN(Cc4ccccc4)CC3)c2)c1`, the “% Inhibition” value is reported as -4% and the Z score was 0.46.
Consider `C[C@H](NCC(=O)N(C)C)c1cncc(F)c1`, for which the “% Inhibition” value is -10% and the Z score is given as 1.24.
For `O=C(N[C@@H]1CCC[C@]12CCCO2)c1cccc(Nc2nccs2)c1`, the “% Inhibition” value is reported as -11% and the Z score is on record as 1.45.
`Cc1oc(-c2[nH]ncc2C(=O)N2CCCCC2)cc1S(=O)(=O)Nc1ccccc1`: the “% Inhibition” value was -14% and the Z score turned out to be 1.68.
Regarding `Fc1cc2ncn(Cc3nc(-c4ccco4)no3)c2cc1F`, the “% Inhibition” value is reported as -15% and the Z score was 1.3.
Consider `c1ccc(C(Nc2nnnn2-c2ccccc2)c2ccccc2)cc1`, for which the “% Inhibition” value worked out at 2% and the Z score was -0.41.

Usually % Inhibition stands for the drop in the measured response relative to a control, in per cent.
